In one test the target is Myc-p85α (UniProt P27986). Description: co-IP; lysates of transfected MDA-MB-435 cells; Co-IP with anti-Myc or anti-GFP antibody, mouse IgG as control; Western blot. Background: A western blot detects proteins with antibodies after separation by electrophoresis.
Another test deals with Myc-p110α (UniProt P42336). The test is described as above.
Test [1] deals with GST fusion protein of NM23-H1 (GST-NM23-H1) (UniProt P15531). Description: pull-down; GST or GST-NM23-H1 fusion protein incubated with [35S]methionine-labeled in vitro translated p110α or p85α; bound proteins resolved on SDS-PAGE; only the target purified.

Amino acid sequences for entries named in this document (tags omitted). A change or cut given only in a name is not applied to a line headed by its entry.
UniProt P27986: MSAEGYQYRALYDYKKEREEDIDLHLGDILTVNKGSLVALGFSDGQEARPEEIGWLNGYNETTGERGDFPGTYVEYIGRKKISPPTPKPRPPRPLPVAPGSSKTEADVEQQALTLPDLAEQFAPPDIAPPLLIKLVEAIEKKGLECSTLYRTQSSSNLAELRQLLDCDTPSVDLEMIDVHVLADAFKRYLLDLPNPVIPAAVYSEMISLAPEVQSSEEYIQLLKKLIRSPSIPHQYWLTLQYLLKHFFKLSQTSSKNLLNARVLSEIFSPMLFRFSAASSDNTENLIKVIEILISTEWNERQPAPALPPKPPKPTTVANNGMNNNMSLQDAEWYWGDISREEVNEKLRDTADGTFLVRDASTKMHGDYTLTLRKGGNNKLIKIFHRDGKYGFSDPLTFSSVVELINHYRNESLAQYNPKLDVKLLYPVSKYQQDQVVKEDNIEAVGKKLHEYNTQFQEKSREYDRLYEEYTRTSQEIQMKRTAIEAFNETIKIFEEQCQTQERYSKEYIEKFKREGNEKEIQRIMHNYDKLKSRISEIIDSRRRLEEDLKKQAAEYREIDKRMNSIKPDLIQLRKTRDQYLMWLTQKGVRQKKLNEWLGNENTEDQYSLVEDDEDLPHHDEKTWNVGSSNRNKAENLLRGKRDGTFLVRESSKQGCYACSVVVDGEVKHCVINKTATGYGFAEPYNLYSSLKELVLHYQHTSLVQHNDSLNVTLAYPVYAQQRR
UniProt P42336: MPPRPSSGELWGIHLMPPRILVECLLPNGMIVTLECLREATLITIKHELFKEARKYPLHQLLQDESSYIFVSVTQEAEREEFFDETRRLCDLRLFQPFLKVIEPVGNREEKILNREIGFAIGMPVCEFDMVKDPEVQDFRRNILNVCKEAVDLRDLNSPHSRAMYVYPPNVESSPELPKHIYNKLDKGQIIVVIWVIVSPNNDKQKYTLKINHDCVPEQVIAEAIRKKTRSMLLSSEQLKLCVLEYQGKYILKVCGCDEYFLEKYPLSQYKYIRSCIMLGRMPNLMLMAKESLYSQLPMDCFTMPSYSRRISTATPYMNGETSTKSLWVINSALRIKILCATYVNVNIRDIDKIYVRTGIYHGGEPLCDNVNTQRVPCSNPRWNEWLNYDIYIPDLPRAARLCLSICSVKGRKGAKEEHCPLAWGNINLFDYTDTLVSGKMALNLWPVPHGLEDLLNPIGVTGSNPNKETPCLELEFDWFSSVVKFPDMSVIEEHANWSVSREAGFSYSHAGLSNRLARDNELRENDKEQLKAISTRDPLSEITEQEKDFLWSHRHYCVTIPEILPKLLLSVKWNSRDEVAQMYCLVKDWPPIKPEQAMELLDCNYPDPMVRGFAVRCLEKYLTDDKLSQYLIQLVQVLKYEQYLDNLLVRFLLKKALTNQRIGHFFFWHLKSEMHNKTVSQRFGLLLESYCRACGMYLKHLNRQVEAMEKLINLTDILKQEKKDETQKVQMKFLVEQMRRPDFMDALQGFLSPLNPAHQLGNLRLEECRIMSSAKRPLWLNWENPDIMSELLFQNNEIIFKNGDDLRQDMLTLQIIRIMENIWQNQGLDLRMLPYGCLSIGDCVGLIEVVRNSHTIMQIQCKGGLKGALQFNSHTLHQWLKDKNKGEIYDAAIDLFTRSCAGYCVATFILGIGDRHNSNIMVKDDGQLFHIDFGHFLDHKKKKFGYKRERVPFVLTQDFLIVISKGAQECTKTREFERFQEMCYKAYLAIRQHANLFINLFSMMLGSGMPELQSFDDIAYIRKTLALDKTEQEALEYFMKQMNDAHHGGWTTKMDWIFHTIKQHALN
UniProt P15531: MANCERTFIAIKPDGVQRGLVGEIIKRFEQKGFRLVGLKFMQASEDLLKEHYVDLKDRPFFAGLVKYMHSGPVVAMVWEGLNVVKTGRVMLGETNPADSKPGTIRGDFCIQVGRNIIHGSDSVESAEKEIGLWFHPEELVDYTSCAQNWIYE

No constants are given. Whether binding was seen depends on the method and setting. Binding seen in cells or lysates may run through a third protein. Some results given as binding are weak or reduced against the parent protein; the word gives no strength.

For the substance GFP-NM23-H1 (from UniProt P15531 1-152), the binding result in the test with Myc-p85α is “no binding”; in the test with Myc-p110α, “binds”.
As for “HA-H118F NM23-H1 mutant (from UniProt P15531 1-152)”, the binding entry in the test with Myc-p110α is reported as “no binding”.
The same measure, in the same setting: with “HA-P96S NM23-H1 mutant (from UniProt P15531 1-152)” the entry was “no binding”.
The same measure, in the same setting: with “HA-S120G NM23-H1 mutant (from UniProt P15531 1-152)” the entry was “no binding”.
Turning to “in vitro-transcribed/translated 35S-labeled p85α (from UniProt P27986 1-724)”, in test [1], the binding entry is listed as “no binding”.

(Values after publication PMC8087825.)
